Results published in paper PMC4336329 (PLoS ONE, 2015).
Screen size: about 310,000 compounds; about 14,000 (4.5%) showed an effect of 50% or more. The effect is printed as a negative number. The list shows a part of the results.

target: human ether-à-go-go-related gene (hERG) potassium channel (human, UniProt Q12809); assay: primary screen, population patch clamp on CHO cells stably expressing hERG
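Note: peak tail current of the secondary pulse compared with the same well before compound.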

human ether-à-go-go-related gene (hERG) potassium channel, sequence (Q12809 whole entry, looked up): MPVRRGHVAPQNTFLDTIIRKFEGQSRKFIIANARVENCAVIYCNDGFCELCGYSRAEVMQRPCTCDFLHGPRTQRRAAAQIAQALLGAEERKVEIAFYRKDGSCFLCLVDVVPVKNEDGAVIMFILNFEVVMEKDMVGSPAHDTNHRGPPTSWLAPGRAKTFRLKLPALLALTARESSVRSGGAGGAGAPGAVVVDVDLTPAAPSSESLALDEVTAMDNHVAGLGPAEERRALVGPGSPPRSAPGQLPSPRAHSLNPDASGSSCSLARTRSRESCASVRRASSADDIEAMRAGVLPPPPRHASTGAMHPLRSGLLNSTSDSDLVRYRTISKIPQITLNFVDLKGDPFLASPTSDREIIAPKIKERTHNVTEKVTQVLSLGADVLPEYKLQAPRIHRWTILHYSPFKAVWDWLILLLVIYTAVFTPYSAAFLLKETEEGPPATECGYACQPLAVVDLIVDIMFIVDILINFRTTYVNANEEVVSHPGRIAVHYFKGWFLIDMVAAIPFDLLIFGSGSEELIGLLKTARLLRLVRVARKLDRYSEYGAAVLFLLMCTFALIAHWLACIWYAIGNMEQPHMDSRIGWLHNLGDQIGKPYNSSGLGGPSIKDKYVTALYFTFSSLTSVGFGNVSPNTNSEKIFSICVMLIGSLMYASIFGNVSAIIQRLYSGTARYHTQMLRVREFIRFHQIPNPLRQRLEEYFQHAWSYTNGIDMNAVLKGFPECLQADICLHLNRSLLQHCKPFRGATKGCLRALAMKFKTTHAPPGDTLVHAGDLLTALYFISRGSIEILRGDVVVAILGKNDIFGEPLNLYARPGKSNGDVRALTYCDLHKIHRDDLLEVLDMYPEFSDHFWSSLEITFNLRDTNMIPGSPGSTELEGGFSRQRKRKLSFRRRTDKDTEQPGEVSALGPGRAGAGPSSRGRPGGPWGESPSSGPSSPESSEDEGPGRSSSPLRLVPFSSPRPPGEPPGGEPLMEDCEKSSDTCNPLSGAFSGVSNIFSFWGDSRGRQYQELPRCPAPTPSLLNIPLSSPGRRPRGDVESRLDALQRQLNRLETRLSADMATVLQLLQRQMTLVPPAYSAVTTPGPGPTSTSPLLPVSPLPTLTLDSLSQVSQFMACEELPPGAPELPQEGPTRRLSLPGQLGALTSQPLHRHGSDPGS

| SMILES | hERG current change (%, negative = inhibition) at 10uM [%] |
| --- | --- |
| CCO[C@H]1OC(C(=O)N2CCN(Cc3ccc4c(c3)OCO4)CC2)=C[C@@H](C2CC2)[C@@H]1CCCO | -10.7 |
| CCc1ccc(-n2c(C)cc(/C=N/NC(=O)c3ccncc3)c2C)cc1 | -4.97 |
| Cc1ccc(S(=O)(=O)N(C)CC(=O)NC2CCCC2)cc1 | -2.71 |
| CCCCNCC(=O)Nc1ccc(NC(=O)CNCCCC)cc1 | 20.4 |
| O=C1C2C3C=CC([C@@H]2C(=O)N1Cc1cccnc1)C31CC1 (some centres unmarked) | 4.5 |
| CC(=O)N(Cc1ccc(Br)cc1)c1ccccc1C(=O)O | 6.81 |
| Nc1cc(=O)[nH]n1C1CCN(c2ccccc2)CC1 | 15.2 |
| CCCCc1nnc(NC(=O)CCN2C(=O)C3CC=CCC3C2=O)s1 (centres unmarked) | -1.38 |
| CC(O)CNc1ccc([N+](=O)[O-])c2cccnc12 (centres unmarked) | -18.6 |
| O=C1COc2ccc(C(=O)COC(=O)c3c(F)cccc3Cl)cc2N1 | 2.35 |
| Cc1ccc(S(=O)(=O)N2CCCN(C(=O)OC(C)(C)C)CC2)cc1 | 2.43 |
| Cc1cc(C(=O)NCc2cccnc2)no1 | -0.671 |
| CC(C)c1ccc(NC(=O)C2CC(=O)N(C(C)C)C2)cc1 (centres unmarked) | -2.82 |
| CC(=O)Nc1cccc(NC(=O)c2ccc([N+](=O)[O-])cc2Cl)c1 | -3.49 |
| CCC(Sc1ncccc1C(=O)OC(C)C)C(=O)NCc1ccco1 (centres unmarked) | -9.18 |
| COc1cccc(NC(=O)CN(C)C(=O)CC2CC3CCC2C3)c1 (centres unmarked) | -10.6 |
| CC1CC(C)CN(C(=O)COC(=O)c2nn(C)c(=O)c3ccccc23)C1 (centres unmarked) | -37.2 |
| C[C@]1(C2CCCC2)Cc2cc(OCC(=O)O)c(Cl)c(Cl)c2C1=O | -0.892 |
| CN(Cc1ccc(Cl)cc1Cl)C(=O)c1cc(=O)c2ccccc2o1 | -53.4 |
| CCOC(=O)c1ccc(NC(=O)Nn2cnnc2)cc1 | 25.6 |
| Cc1oc(-c2cccs2)nc1CSCC(=O)NC1CC1 | -3.82 |
| CCOc1ccc(NC(=O)CC2C(=O)N(c3ccc(OC)cc3)C(=O)N2CCc2ccc(OC)c(OC)c2)cc1 (centres unmarked) | -16.9 |
| Cc1cc2ccccc2n1CCNC(=O)c1ccccc1 | 10.3 |
| Cc1nnc(C)n1/N=C/C=C/c1ccccc1 | 8.4 |
| Cc1csc(NC(=O)c2c(-c3ccccc3)noc2C)n1 | 20.3 |
| COC(=O)CCC(=O)Nc1ccc(N=Nc2ccccc2)cc1 | 28.7 |
